# This is one part of the list. Read counts after selection give these values, which scatter widely. Each score is taken over the longer molecules that contain the sequence shown.
# Assays:
# Assay in all cases: 6-mer SELEX enrichment z-score vs GST control; IMP3 is the RNA-binding protein IGF2BP3; higher = more enriched by binding
# IMP3 KH1-4 = conditions: construct: KH1-4 (164-579); SELEX round: R4
# Description: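 SELEX-seq with GST-tagged IMP3 KH1-4 (Pro164-Lys579) and an N40 RNA pool, round 4. 6-mer z-score of sequence-tag enrichment normalised to the corresponding GST SELEX round; RNA k-mers written as DNA (T for U).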
# IMP3 RRM1-2 = conditions: construct: RRM1-2 (1-163); SELEX round: R2
# Sequence of IMP3 RRM1-2 (chain, as listed by the source): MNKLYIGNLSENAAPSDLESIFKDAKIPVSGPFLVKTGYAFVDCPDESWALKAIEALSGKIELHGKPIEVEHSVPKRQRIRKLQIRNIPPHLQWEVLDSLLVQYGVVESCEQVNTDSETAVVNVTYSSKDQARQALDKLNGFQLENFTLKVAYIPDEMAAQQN
# Description: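 SELEX-seq with GST-tagged IMP3 RRM1-2 (Met1-Asn163) and an N40 RNA pool, round 2. 6-mer enrichment z-score normalised to GST SELEX. RNA written as DNA (T = U).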
# IMP3 full-length = IMP3 full-length (UniProt O00425); conditions: construct: FL IMP3 (1-579); SELEX round: R4
# Sequence of UniProt O00425 (O00425 whole entry): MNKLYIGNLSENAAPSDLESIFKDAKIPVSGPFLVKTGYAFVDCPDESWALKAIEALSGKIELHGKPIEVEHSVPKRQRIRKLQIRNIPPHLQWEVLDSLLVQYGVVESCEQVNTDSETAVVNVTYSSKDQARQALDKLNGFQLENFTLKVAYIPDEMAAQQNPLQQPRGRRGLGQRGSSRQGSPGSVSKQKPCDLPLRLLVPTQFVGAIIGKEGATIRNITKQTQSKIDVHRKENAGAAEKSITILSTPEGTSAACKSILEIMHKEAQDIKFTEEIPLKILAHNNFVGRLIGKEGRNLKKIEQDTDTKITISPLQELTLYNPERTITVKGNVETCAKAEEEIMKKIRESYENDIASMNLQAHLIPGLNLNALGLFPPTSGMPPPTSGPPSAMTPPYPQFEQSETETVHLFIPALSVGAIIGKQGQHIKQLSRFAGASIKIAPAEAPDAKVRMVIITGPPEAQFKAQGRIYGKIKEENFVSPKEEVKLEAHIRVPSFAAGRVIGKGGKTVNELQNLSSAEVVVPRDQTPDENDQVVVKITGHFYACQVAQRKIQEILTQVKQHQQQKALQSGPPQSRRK
# Description: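 SELEX-seq with GST-tagged full-length IMP3 and an N40 RNA pool, round 4. Each 6-mer is scored as an enrichment z-score of sequence tags containing it, normalised to the matching GST SELEX round. RNA written as DNA (T = U).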
# IMP3 KH1-2 = conditions: construct: KH1-2 (164-376); SELEX round: R4
# Sequence of IMP3 KH1-2 (chain, as listed by the source): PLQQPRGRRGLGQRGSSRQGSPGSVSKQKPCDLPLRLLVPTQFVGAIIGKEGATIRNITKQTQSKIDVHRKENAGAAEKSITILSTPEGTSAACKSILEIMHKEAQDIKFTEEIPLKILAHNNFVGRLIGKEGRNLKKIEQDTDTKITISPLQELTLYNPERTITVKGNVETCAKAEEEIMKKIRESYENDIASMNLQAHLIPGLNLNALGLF
# Description: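 SELEX-seq with GST-tagged IMP3 KH1-2 (Pro164-Phe376) and an N40 RNA pool, round 4 (stringent 300/600 mM KCl washes). 6-mer z-score of sequence-tag enrichment normalised to the corresponding GST SELEX round; RNA k-mers written as DNA (T for U).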
# IMP3 KH3-4 = conditions: construct: KH3-4 (377-579); SELEX round: R4
# Sequence of IMP3 KH3-4 (chain, as listed by the source): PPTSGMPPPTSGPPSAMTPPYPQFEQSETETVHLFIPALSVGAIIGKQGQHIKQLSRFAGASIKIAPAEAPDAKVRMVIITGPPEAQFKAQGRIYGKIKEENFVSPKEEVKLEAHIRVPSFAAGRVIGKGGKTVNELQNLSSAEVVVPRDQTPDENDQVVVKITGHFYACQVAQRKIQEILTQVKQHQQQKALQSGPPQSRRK
# Description: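 SELEX-seq with GST-tagged IMP3 KH3-4 (Pro377-Lys579) and an N40 RNA pool, round 4. 6-mer z-score of sequence-tag enrichment normalised to the corresponding GST SELEX round; RNA k-mers written as DNA (T for U).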
# Sequence of IMP3 KH1-4 (chain, as listed by the source): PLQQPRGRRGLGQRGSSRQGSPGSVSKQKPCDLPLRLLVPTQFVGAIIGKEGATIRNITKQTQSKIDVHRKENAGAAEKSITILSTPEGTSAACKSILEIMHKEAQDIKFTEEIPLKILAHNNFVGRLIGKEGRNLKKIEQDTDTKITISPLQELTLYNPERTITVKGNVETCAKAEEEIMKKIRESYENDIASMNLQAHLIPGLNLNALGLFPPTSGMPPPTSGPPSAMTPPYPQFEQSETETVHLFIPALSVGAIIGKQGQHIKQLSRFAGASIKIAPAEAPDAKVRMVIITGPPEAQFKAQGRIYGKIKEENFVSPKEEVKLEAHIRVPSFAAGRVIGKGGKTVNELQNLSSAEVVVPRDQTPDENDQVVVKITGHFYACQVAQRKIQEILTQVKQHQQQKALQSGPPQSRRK
Sequence,6-mer SELEX enrichment z-score (IMP3 KH1-4),6-mer SELEX enrichment z-score (IMP3 RRM1-2),6-mer SELEX enrichment z-score (IMP3 full-length),6-mer SELEX enrichment z-score (IMP3 KH1-2),6-mer SELEX enrichment z-score (IMP3 KH3-4)
TCGAAA,-1.58,-1.07,-1.48,-1.49,-1.38
AACGAG,-3.57,-1.53,-2.23,-3.38,-3.01
CTGAAG,-0.418,-0.609,-0.595,-0.409,-0.394
TATCCC,-0.558,-0.426,-0.908,-0.532,-0.889
CTGTCC,0.402,-0.13,-0.1,0.231,-0.372
TATGGG,0.557,0.211,0.227,0.434,0.78
CGGTTC,-0.225,0.311,0.122,-0.202,-0.146
TATCAG,0.619,0.713,0.639,0.542,0.577
CGATCA,-0.271,1.3,0.954,-0.225,-0.433
GAGTTG,-0.353,0.049,-0.272,-0.317,-0.144
TGAGGT,0.12,0.145,0.202,0.148,0.349
TCTGGT,0.004,0.554,0.213,0.066,0.146
GCCTAG,-0.886,-0.254,-0.558,-0.753,-0.735
AGCATC,0.311,0.626,1.36,-0.109,-0.335
TAAGAG,-0.201,-0.671,-0.496,-0.253,0.297
ATTAAC,1.45,-0.158,-0.064,1.5,2.28
GATGTT,0.254,-0.013,-0.107,0.119,0.375
ATTAAG,0.753,-0.188,-0.035,0.567,1.38
GATCAT,0.99,1.28,1.2,0.685,0.922
CTTCGT,-0.272,0.307,-0.151,-0.241,-0.191
CCTTCG,-0.583,0.003,-0.461,-0.528,-0.756
CCGATG,-0.806,-0.844,-0.765,-0.681,-0.877
ATTGGA,0.272,-0.067,-0.091,0.104,0.315
TAGCGA,-1.02,-0.306,-0.673,-0.937,-0.774
ACAGAG,-0.304,0.355,0.78,-0.225,-0.204
TTGGCA,0.302,0.433,0.543,0.176,0.193
GGGCTG,0.101,0.162,0.452,0.334,0.394
CTAGCT,-0.197,0.116,-0.149,-0.163,-0.114

Sequence,6-mer SELEX enrichment z-score (IMP3 KH1-4),6-mer SELEX enrichment z-score (IMP3 RRM1-2),6-mer SELEX enrichment z-score (IMP3 full-length),6-mer SELEX enrichment z-score (IMP3 KH1-2),6-mer SELEX enrichment z-score (IMP3 KH3-4)
GTGATC,-0.02,0.082,0.028,-0.197,-0.167
TTGGAA,-0.148,-0.274,-0.381,-0.278,-0.042
TGAGGG,0.562,-0.023,0.27,0.679,0.791
ATGGCG,0.625,0.328,0.514,0.509,1.17
ATCGCA,0.968,0.27,0.871,0.741,0.416
CCAATG,-0.65,-0.68,-0.835,-0.813,-0.918
AGCAGT,0.215,0.338,0.543,0.051,0.044
CTTTCA,1.08,0.891,0.902,1.15,0.729
TTCGTA,-0.132,0.229,-0.2,-0.184,-0.017
GGATGA,1.01,-0.625,0.001,0.64,0.986
TGCACA,1.85,1.1,1.5,1.67,1.03
TGGCAC,1.05,0.569,1.54,0.703,0.788
CAATCT,0.042,0.644,0.138,0.016,-0.227
AAGTAA,0.384,-1,-0.643,0.118,0.93
AGCTCA,-0.35,0.462,0.334,-0.23,-0.321
GGGCGG,-0.05,0.187,0.824,0.4,0.182
CACTGT,0.732,0.411,0.623,0.654,0.225
TCGCCT,-0.156,0.108,-0.051,-0.05,-0.196
AAATCG,-1.04,-1.1,-1.11,-1.25,-0.918
AATGGA,0.818,-1.07,-0.515,0.321,0.968
ATTGAG,-1.03,-0.298,-0.832,-0.995,-0.623
AAATGC,-0.31,-1.27,-1.08,-0.37,-0.023
GACTAT,0.453,-0.243,-0.288,0.443,0.737
AAAGCT,-0.918,-0.861,-0.962,-0.879,-0.735
TGAAAG,-0.177,-1.19,-0.909,-0.375,0.319
TTCCTT,1.07,0.365,0.166,1.05,0.793
TGTGGT,-0.041,0.467,-0.069,-0.036,0.14

# — the supplement of paper PMC6531468
